Assay results published in patent US20050106730A1, “Compositions and methods utilizing stable reporter cell lines for detection of pathway-specific signal transduction” (priority 1999, published 2005).

Test system: MAPK pathway converging on Elk1 (GAL4-Elk1 fusion)
Assay: Luciferase reporter assay in RCLH-Elk1 stable reporter cells treated with extracellular stimuli
Details: PMA 60 ng/ml, 5 hours

Which “Luciferase expression relative to untreated control” value does the source give for CCCCCCCCCCCCCC(=O)O[C@@H]1[C@@H](C)[C@@]2(O)[C@@H](C=C(CO)C[C@]3(O)C(=O)C(C)=C[C@@H]23)[C@@H]2C(C)(C)[C@]12OC(C)=O [PMA, phorbol 12-myristate 13-acetate] here?
Its value is about 50 fold.
